The whole screen tested about 110,000 compounds, of which about 230 (0.21%) showed an effect of 50% or more. This is one part of the list.
biological target: DPAP1 (Plasmodium falciparum, UniProt Q8IIJ9); assay: primary screen, percent inhibition; read by cleavage of a fluorogenic dipeptide substrate; higher = more effect of the substance; design: species or system P. falciparum D10 trophozoite lysates; single well
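Further: 30 min substrate incubation versus DMSO and 10 µM JCP410 controls.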

Chain of DPAP1 (Q8IIJ9 whole entry, looked up): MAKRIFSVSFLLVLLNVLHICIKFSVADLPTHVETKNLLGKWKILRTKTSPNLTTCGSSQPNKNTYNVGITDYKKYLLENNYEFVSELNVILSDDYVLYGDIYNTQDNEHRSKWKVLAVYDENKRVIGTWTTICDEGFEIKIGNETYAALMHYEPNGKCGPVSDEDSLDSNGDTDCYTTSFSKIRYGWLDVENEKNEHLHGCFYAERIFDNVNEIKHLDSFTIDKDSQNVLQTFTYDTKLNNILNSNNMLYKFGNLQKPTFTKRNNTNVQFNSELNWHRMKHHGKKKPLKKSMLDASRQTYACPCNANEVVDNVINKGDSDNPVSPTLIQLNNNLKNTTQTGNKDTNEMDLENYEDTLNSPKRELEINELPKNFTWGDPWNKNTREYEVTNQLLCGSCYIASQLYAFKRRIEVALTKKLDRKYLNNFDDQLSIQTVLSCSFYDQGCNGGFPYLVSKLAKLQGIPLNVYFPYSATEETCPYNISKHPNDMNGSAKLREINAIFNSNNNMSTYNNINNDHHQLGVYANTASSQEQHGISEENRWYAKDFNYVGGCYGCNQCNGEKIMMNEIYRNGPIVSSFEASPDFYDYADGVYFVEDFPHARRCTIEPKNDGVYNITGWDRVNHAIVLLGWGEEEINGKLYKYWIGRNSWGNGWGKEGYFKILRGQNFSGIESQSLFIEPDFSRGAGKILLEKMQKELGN

Structure (SMILES) | % Inhibition @ 10 uM [%]
CCCCCCOc1ccc(CNCCCN(CC)CC)cc1 | -3.12
Cc1ccc(C(=O)c2oc3ccccc3c2NC(=O)c2ccco2)cc1 | -1.11
COCCCNC(=O)CCn1nc(-c2ccccc2)ccc1=O | -3.58
COC(=O)C1=C(C)NC(=O)NC1c1cccc(Oc2ccccc2)c1 (stereo not shown) | 1.12
CC(=O)c1c(C)nn2c3ccccc3n(CCN3CCOCC3)c12 | -3.92
COc1ccc(NC(=O)CN(Cc2ccc(Cl)cc2)S(=O)(=O)c2ccccc2)cc1 | -1.84
O=C(NCC1COc2ccccc2O1)c1ccco1 (stereo not shown) | -5.76
CCOC(=O)c1c(C)[nH]c(C)c1S(=O)(=O)N1CCC(C(=O)Nc2nc(C)cs2)CC1 | -2.31
CC(CNc1nc2ccccc2n2cnnc12)c1ccccc1 (stereo not shown) | 0.981
CC(CCc1ccccc1)NC(=O)Cn1ncc2c(=O)oc3ccccc3c21 (stereo not shown) | -2.83
CCOc1ccccc1N(CC(=O)N1CCOCC1)S(=O)(=O)c1ccc(C)cc1 | 1.71
Cc1ccc(C2C(C#N)=C(N)OC3=C2C(=O)CCC3)s1 (stereo not shown) | 1.42
CCOC(=O)c1sc2nc(SC)n(Cc3ccccc3)c(=O)c2c1C | -1.68
Cc1ccc(C2=NN3C(C2)c2ccccc2OC3c2ccccc2Cl)o1 (stereo not shown) | -5.51
O=C(c1ccccc1O)N1CCOCC1 | -2.87
Cc1cc(C)nc(NS(=O)(=O)c2ccc(NC(=O)c3ccc4c(c3)OCO4)cc2)n1 | -3.45
CN1CCN(C(=O)/C(=C\c2cccnc2)NC(=O)c2ccco2)CC1 | -4.93
O=C1CC(C(=O)NCc2ccccc2)NC(N2CCOCC2)=N1 (stereo not shown) | 4.08
CCS(=O)(=O)N1CCC(C(=O)NCCc2ccccc2)CC1 | 3.79
Cn1cccc1Cc1nnc(SCC(=O)N2CCCC2)n1CCc1ccccc1 | 5.77
COc1ccc2nc(NC(=O)c3cc(=O)c4cc(C)ccc4o3)sc2c1 | -3.24
CCOc1ccc(C(=O)N(Cc2ccccc2)C2CCS(=O)(=O)C2)cc1 (stereo not shown) | 0.561

Structure (SMILES) | % Inhibition @ 10 uM [%]
CCOc1ccccc1/C=C1/N=C(c2ccc(OC)c(Br)c2)OC1=O | 5.63
COP(=O)(c1ccccc1)C(O)(c1ccccc1)c1ccccc1 (stereo not shown) | 6.89
O=C(Nc1ccccc1NC(=O)c1ccco1)c1ccco1 | 1.63
Cc1cc(C)n(-c2nnc3c(n2)[nH]c2ccccc23)n1 | 16.9
Cc1ccc(SCc2n[nH]c3c2C(C(C)C)C(C#N)=C(N)O3)cc1 (stereo not shown) | 2.68
Cc1ccc(C)c(NC(=O)CN(c2ccccc2F)S(C)(=O)=O)c1 | -3.28
CC(C)(O)C(=O)/C=C/c1ccc(Cl)cc1 | 4.33
CN1C(=O)c2ccccc2C(C(=O)NC2CCCc3ccccc32)C1c1cn(C)c2ccccc12 (stereo not shown) | 4.63
Fc1ccc(COc2ccc(Br)cc2CNCC2CCCO2)cc1 (stereo not shown) | 8.1
CCOC(=O)N1CCN(S(=O)(=O)c2cc(Cl)c(C)cc2OCC)CC1 | -1.43
Cc1cc(C)c2nc(N3CCC(C(=O)N4CCN(Cc5ccccc5)CC4)CC3)sc2c1 | 6.27
O=C(NCCCN1CCOCC1)c1ccc(Br)cc1 | -4.68
CCOC(=O)C1=C(CSCc2ccccc2)NC(=O)NC1c1cc(C)ccc1C (stereo not shown) | 6.47
CC(=O)Nc1ccc(NC(=O)/C=C\C(=O)O)cc1 | -3.65
O=C(Nc1ccc(O)cc1)c1ccc([N+](=O)[O-])o1 | 4.17
c1nc(N2CCOCC2)c2nc[nH]c2n1 | -6.68
O=C(O)c1ccccc1C(=O)Nc1nccs1 | 5.98
COc1cc(OC)cc(C(=O)Nc2cnn(Cc3ccc(Cl)cc3)c2)c1 | 17.5
Cc1ccccc1OCCCCCn1ccnc1 | -0.693
CCOc1cc(/C=C2/NC(=O)N(Cc3ccc(F)cc3)C2=O)ccc1O | 4.28
COC(=O)c1ccn(-c2nc(-c3cccs3)cc(C(F)(F)F)n2)n1 | -7.85
CCOC(=O)c1cc(CC)sc1/N=C/C1C(=O)CCCC1=O | 3.72

Structure (SMILES) | % Inhibition @ 10 uM [%]
CCc1cc2c(NC(Cc3c[nH]c4ccccc34)C(=O)O)nc(C)nc2s1 (stereo not shown) | 4.87
Cc1cc2n(c(=O)c1C#N)CCCN2c1cccc(Cl)c1 | 2.32
COc1ccc(S(=O)(=O)N2CCCCC2)cc1OC | -0.582
COc1ccc(C(=O)/C=C/c2cc(OC)c(OC)cc2OC)c(OC)c1 | -5.94
Cc1ccc(C2CCN(C(=O)c3ccc(CS(=O)(=O)c4ccccc4C)o3)C2)cc1 (stereo not shown) | -2.72
CCOc1ccc(N2C(=O)CC(NC3CCCC(C)C3C)C2=O)cc1 (stereo not shown) | -0.48
CCn1ccc(C(=O)Nc2ccc(S(=O)(=O)Nc3ccc(OC)cc3)cc2)n1 | 2.09
Cc1ccc(C)c(Cn2cnc3c(cnn3C)c2=O)c1 | 1.68
CC(CCc1ccco1)NC(=O)C1CCN(c2ncccn2)CC1 (stereo not shown) | -6.43
CC(=O)NC1(C(=O)NC2CCCC2)CCCCC1 | -2.53
Cn1c(SCC(=O)Nc2ncc(C34CC5CC(CC(C5)C3)C4)s2)nnc1-c1ccccc1 | -1.24
Cc1cc(NC(=O)Cn2nc(C(F)(F)F)c3c2CCCC3)n(-c2ccccc2)n1 | 0.778
COc1ccc([N+]2=C3SCCCN3C(O)(c3ccc(Cl)cc3)C2)cc1 (stereo not shown) | 0.258
CC(C)(C)c1cc(O)n(-c2ccccc2)n1 | -5.13
O=C(NC(Nc1cc(C(F)(F)F)ccc1Cl)C(=O)c1ccccc1)c1ccccc1 (stereo not shown) | -5.51
COCCN(CCOC)S(=O)(=O)c1ccc(C(=O)Nc2nc3c(s2)C(=O)CC(C)(C)C3)cc1 | 5.94
CCOC(=O)c1c(S(=O)(=O)N2CCc3ccccc3C2)c(C)n(C)c1C | -7.06
Cc1cc(NCCN2CCOCC2)n2c(nc3ccccc32)c1C#N | 20.5
Cc1nn(CCC(=O)NCCc2ccccc2Cl)c(=O)c2nn(-c3ccccc3)c(C)c12 | -7.53
O=C1NC(c2ccc3c(c2)OCO3)C(C(=O)c2ccccc2)C(O)(C(F)(F)F)N1 (stereo not shown) | 0.00477
